According to article PMC10621992:
No constants are given. Whether binding was seen depends on the method and setting. For some of these results: Binding seen in cells or lysates may run through a third protein. Some binding calls cover weakened binding; strength is not graded here. For some of these results: Where a sequence is shown, tags or fusion partners need not be part of it.

By UniProt entry, the sequences of proteins in these tests, tags left out.
UniProt P51451: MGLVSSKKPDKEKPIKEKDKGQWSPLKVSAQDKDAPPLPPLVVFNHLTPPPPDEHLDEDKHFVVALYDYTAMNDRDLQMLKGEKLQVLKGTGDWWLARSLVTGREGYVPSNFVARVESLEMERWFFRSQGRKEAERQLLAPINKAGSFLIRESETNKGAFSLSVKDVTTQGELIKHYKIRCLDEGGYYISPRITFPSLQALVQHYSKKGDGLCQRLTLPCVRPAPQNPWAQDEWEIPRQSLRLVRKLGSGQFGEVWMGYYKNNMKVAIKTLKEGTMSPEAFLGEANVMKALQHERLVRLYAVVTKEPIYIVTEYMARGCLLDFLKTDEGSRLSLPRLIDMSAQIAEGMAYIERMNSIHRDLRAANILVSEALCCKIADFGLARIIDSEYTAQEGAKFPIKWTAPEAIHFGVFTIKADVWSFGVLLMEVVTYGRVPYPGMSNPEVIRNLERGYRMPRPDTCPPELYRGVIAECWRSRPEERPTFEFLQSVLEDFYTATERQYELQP

What follows are binders tested against GST-BLK, prokaryotically expressed and purified (human) (UniProt P51451) (assay: pull-down; both purified).

Row | Binder | binding
1 | TBK1-Flag, purified from HEK293 cells (enzyme, UniProt Q9UHD2 1-729) MQSTSNHLWLLSDILGQGATANVFRGRHKKTGDLFAIKVFNNISFLRPVDVQMREFEVLKKLNHKNIVKLFAIEEETTTRHKVLIMEFCPCGSLYTVLEEPSNAYGLPESEFLIVLRDVVGGMNHLRENGIVHRDIKPGNIMRVIGEDGQSVYKLTDFGAARELEDDEQFVSLYGTEEYLHPDMYERAVLRKDHQKKYGATVDLWSIGVTFYHAATGSLPFRPFEGPRRNKEVMYKIITGKPSGAISGVQKAENGPIDWSGDMPVSCSLSRGLQVLLTPVLANILEADQEKCWGFDQFFAETSDILHRMVIHVFSLQQMTAHKIYIHSYNTATIFHELVYKQTKIISSNQELIYEGRRLVLEPGRLAQHFPKTTEENPIFVVSREPLNTIGLIYEKISLPKVHPRYDLDGDASMAKAITGVVCYACRIASTLLLYQELMRKGIRWLIELIKDDYNETVHKKTEVVITLDFCIRNIEKTVKVYEKLMKINLEAAELGEISDIHTKLLRLSSSQGTIETSLQDIDSRLSPGGSLADAWAHQEGTHPKDRNVEKLQVLLNCMTEIYYQFKKDKAERRLAYNEEQIHKFDKQKLYYHATKAMTHFTDECVKKYEAFLNKSEEWIRKMLHLRKQLLSLTNQCFDIEEEVSKYQEYTNELQETLPQKMFTASSGIKHTMTPIYPSSNTLVEMTLGMKKLKEEMEGVVKELAENNHILERFGSLTMDGGLRNVDCL | no binding

What follows are binders tested against BLK, overexpressed in HEK293 cells (human) (UniProt P51451) (assay: co-IP).

Row | Binder | binding
2 | IRF9, overexpressed in HEK293 cells (protein, UniProt Q00978 1-393) MASGRARCTRKLRNWVVEQVESGQFPGVCWDDTAKTMFRIPWKHAGKQDFREDQDAAFFKAWAIFKGKYKEGDTGGPAVWKTRLRCALNKSSEFKEVPERGRMDVAEPYKVYQLLPPGIVSGQPGTQKVPSKRQHSSVSSERKEEEDAMQNCTLSPSVLQDSLNNEEEGASGGAVHSDIGSSSSSSSPEPQEVTDTTEAPFQGDQRSLEFLLPPEPDYSLLLTFIYNGRVVGEAQVQSLDCRLVAEPSGSESSMEQVLFPKPGPLEPTQRLLSQLERGILVASNPRGLFVQRLCPIPISWNAPQAPPGPGPHLLPSNECVELFRTAYFCRDLVRYFQGLGPPPKFQVTLNFWEESHGSSHTPQNLITVKMEQAFARYLLEQTPEQQAAILSLV | binds
3 | RIG-I (retinoic acid-inducible gene-I), overexpressed in HEK293 cells (protein, UniProt O95786 1-925) MTTEQRRSLQAFQDYIRKTLDPTYILSYMAPWFREEEVQYIQAEKNNKGPMEAATLFLKFLLELQEEGWFRGFLDALDHAGYSGLYEAIESWDFKKIEKLEEYRLLLKRLQPEFKTRIIPTDIISDLSECLINQECEEILQICSTKGMMAGAEKLVECLLRSDKENWPKTLKLALEKERNKFSELWIVEKGIKDVETEDLEDKMETSDIQIFYQEDPECQNLSENSCPPSEVSDTNLYSPFKPRNYQLELALPAMKGKNTIICAPTGCGKTFVSLLICEHHLKKFPQGQKGKVVFFANQIPVYEQQKSVFSKYFERHGYRVTGISGATAENVPVEQIVENNDIIILTPQILVNNLKKGTIPSLSIFTLMIFDECHNTSKQHPYNMIMFNYLDQKLGGSSGPLPQVIGLTASVGVGDAKNTDEALDYICKLCASLDASVIATVKHNLEELEQVVYKPQKFFRKVESRISDKFKYIIAQLMRDTESLAKRICKDLENLSQIQNREFGTQKYEQWIVTVQKACMVFQMPDKDEESRICKALFLYTSHLRKYNDALIISEHARMKDALDYLKDFFSNVRAAGFDEIEQDLTQRFEEKLQELESVSRDPSNENPKLEDLCFILQEEYHLNPETITILFVKTRALVDALKNWIEGNPKLSFLKPGILTGRGKTNQNTGMTLPAQKCILDAFKASGDHNILIATSVADEGIDIAQCNLVILYEYVGNVIKMIQTRGRGRARGSKCFLLTSNAGVIEKEQINMYKEKMMNDSILRLQTWDEAVFREKILHIQTHEKFIRDSQEKPKPVPDKENKKLLCRKCKALACYTADVRVIEECHYTVLGDAFKECFVSRPHPKPKQFSSFEKRAKIFCARQNCSHDWGIHVKYKTFEIPVIKIESFVVEDIATGVQTLYSKWKDFHFEKIPFDPAEMSK | no binding
4 | MDA5 (melanoma differentiation-associated gene 5), overexpressed in HEK293 cells (protein, UniProt Q9BYX4 1-1025) MSNGYSTDENFRYLISCFRARVKMYIQVEPVLDYLTFLPAEVKEQIQRTVATSGNMQAVELLLSTLEKGVWHLGWTREFVEALRRTGSPLAARYMNPELTDLPSPSFENAHDEYLQLLNLLQPTLVDKLLVRDVLDKCMEEELLTIEDRNRIAAAENNGNESGVRELLKRIVQKENWFSAFLNVLRQTGNNELVQELTGSDCSESNAEIENLSQVDGPQVEEQLLSTTVQPNLEKEVWGMENNSSESSFADSSVVSESDTSLAEGSVSCLDESLGHNSNMGSDSGTMGSDSDEENVAARASPEPELQLRPYQMEVAQPALEGKNIIICLPTGSGKTRVAVYIAKDHLDKKKKASEPGKVIVLVNKVLLVEQLFRKEFQPFLKKWYRVIGLSGDTQLKISFPEVVKSCDIIISTAQILENSLLNLENGEDAGVQLSDFSLIIIDECHHTNKEAVYNNIMRHYLMQKLKNNRLKKENKPVIPLPQILGLTASPGVGGATKQAKAEEHILKLCANLDAFTIKTVKENLDQLKNQIQEPCKKFAIADATREDPFKEKLLEIMTRIQTYCQMSPMSDFGTQPYEQWAIQMEKKAAKEGNRKERVCAEHLRKYNEALQINDTIRMIDAYTHLETFYNEEKDKKFAVIEDDSDEGGDDEYCDGDEDEDDLKKPLKLDETDRFLMTLFFENNKMLKRLAENPEYENEKLTKLRNTIMEQYTRTEESARGIIFTKTRQSAYALSQWITENEKFAEVGVKAHHLIGAGHSSEFKPMTQNEQKEVISKFRTGKINLLIATTVAEEGLDIKECNIVIRYGLVTNEIAMVQARGRARADESTYVLVAHSGSGVIEHETVNDFREKMMYKAIHCVQNMKPEEYAHKILELQMQSIMEKKMKTKRNIAKHYKNNPSLITFLCKNCSVLACSGEDIHVIEKMHHVNMTPEFKELYIVRENKALQKKCADYQINGEIICKCGQAWGTMMVHKGLDLPCLKIRNFVVVFKNNSTKKQYKKWVELPITFPNLDYSECCLFSDED | no binding
5 | TBK1, overexpressed in HEK293 cells (enzyme, UniProt Q9UHD2 1-729) MQSTSNHLWLLSDILGQGATANVFRGRHKKTGDLFAIKVFNNISFLRPVDVQMREFEVLKKLNHKNIVKLFAIEEETTTRHKVLIMEFCPCGSLYTVLEEPSNAYGLPESEFLIVLRDVVGGMNHLRENGIVHRDIKPGNIMRVIGEDGQSVYKLTDFGAARELEDDEQFVSLYGTEEYLHPDMYERAVLRKDHQKKYGATVDLWSIGVTFYHAATGSLPFRPFEGPRRNKEVMYKIITGKPSGAISGVQKAENGPIDWSGDMPVSCSLSRGLQVLLTPVLANILEADQEKCWGFDQFFAETSDILHRMVIHVFSLQQMTAHKIYIHSYNTATIFHELVYKQTKIISSNQELIYEGRRLVLEPGRLAQHFPKTTEENPIFVVSREPLNTIGLIYEKISLPKVHPRYDLDGDASMAKAITGVVCYACRIASTLLLYQELMRKGIRWLIELIKDDYNETVHKKTEVVITLDFCIRNIEKTVKVYEKLMKINLEAAELGEISDIHTKLLRLSSSQGTIETSLQDIDSRLSPGGSLADAWAHQEGTHPKDRNVEKLQVLLNCMTEIYYQFKKDKAERRLAYNEEQIHKFDKQKLYYHATKAMTHFTDECVKKYEAFLNKSEEWIRKMLHLRKQLLSLTNQCFDIEEEVSKYQEYTNELQETLPQKMFTASSGIKHTMTPIYPSSNTLVEMTLGMKKLKEEMEGVVKELAENNHILERFGSLTMDGGLRNVDCL | no binding
6 | IRF7, overexpressed in HEK293 cells (protein, UniProt Q92985 1-503) MALAPERAAPRVLFGEWLLGEISSGCYEGLQWLDEARTCFRVPWKHFARKDLSEADARIFKAWAVARGRWPPSSRGGGPPPEAETAERAGWKTNFRCALRSTRRFVMLRDNSGDPADPHKVYALSRELCWREGPGTDQTEAEAPAAVPPPQGGPPGPFLAHTHAGLQAPGPLPAPAGDKGDLLLQAVQQSCLADHLLTASWGADPVPTKAPGEGQEGLPLTGACAGGPGLPAGELYGWAVETTPSPGPQPAALTTGEAAAPESPHQAEPYLSPSPSACTAVQEPSPGALDVTIMYKGRTVLQKVVGHPSCTFLYGPPDPAVRATDPQQVAFPSPAELPDQKQLRYTEELLRHVAPGLHLELRGPQLWARRMGKCKVYWEVGGPPGSASPSTPACLLPRNCDTPIFDFRVFFQELVEFRARQRRGSPRYTIYLGFGQDLSAGRPKEKSLVLVKLEPWLCRVHLEGTQREGVSSLDSSSLSLCLSSANSLYDDIECFLMELEQPA | no binding
7 | IRF8, overexpressed in HEK293 cells (protein, UniProt Q02556 1-426) MCDRNGGRRLRQWLIEQIDSSMYPGLIWENEEKSMFRIPWKHAGKQDYNQEVDASIFKAWAVFKGKFKEGDKAEPATWKTRLRCALNKSPDFEEVTDRSQLDISEPYKVYRIVPEEEQKCKLGVATAGCVNEVTEMECGRSEIDELIKEPSVDDYMGMIKRSPSPPEACRSQLLPDWWAQQPSTGVPLVTGYTTYDAHHSAFSQMVISFYYGGKLVGQATTTCPEGCRLSLSQPGLPGTKLYGPEGLELVRFPPADAIPSERQRQVTRKLFGHLERGVLLHSSRQGVFVKRLCQGRVFCSGNAVVCKGRPNKLERDEVVQVFDTSQFFRELQQFYNSQGRLPDGRVVLCFGEEFPDMAPLRSKLILVQIEQLYVRQLAEEAGKSCGAGSVMQAPEEPPPDQVFRMFPDICASHQRSFFRENQQITV | no binding
